# Reference: the supplement of paper PMC8728848
# This is one part of the list.
# B1: Dectin-1 (Mus musculus), Q6QLQ4 (protein)
# chain: GHNSGRNPEEKDNFLSRNKENHKPTESSLDEKVAPSKASQTTGGFSQPCLPNWIMHGKSCYLFSFSGNSWYGSKRHCSQLGAHLLKIDNSKEFEFIESQTSSHRINAFWIGLSRNQSEGPWFWEDGSAFFPNSFQVRNTAPQESLLHNCVWIHGSEVYNQICNTSSYSICEKEL
# Tests used:
# Assay in all cases: glycan array binding signal (z-score within array); higher = stronger binding
# Conditions in all cases: glycan notation: IUPAC condensed, linker removed
# Neu5Ac(a2-3)Gal = target: Neu5Ac(a2-3)Gal
# In short: (§1)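 Glycan array data were curated from 3228 arrays in the Consortium for Functional Glycomics database and kept only where the protein sequence was available. Glycan names were converted to IUPAC-condensed notation, and columns mapping to the same glycan were averaged. The binding signal is a within-array Z-score, averaged across arrays of the same protein sequence at different concentrations or buffers and across linkers. Negative Z-scores can be read as non-binding.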
# [1] = target: Neu5Ac(a2-3)Gal(b1-3)GalNAc(b1-4)Gal(b1-4)Glc
# In short: as §1
# [2] = target: Neu5Ac(a2-3)Gal(b1-3)GalNAc(b1-4)[Neu5Ac(a2-3)]Gal(b1-4)Glc
# In short: as §1
# [3] = target: Neu5Ac(a2-3)Gal(b1-3)GalNAc(b1-4)[Neu5Ac(a2-8)Neu5Ac(a2-3)]Gal(b1-4)Glc
# In short: as §1
# [4] = target: Neu5Ac(a2-3)Gal(b1-3)GlcNAc(b1-3)Gal(b1-4)Glc
# In short: as §1
# [5] = target: Neu5Ac(a2-3)Gal(b1-3)GlcNAc(b1-3)[Fuc(a1-3)[Gal(b1-4)]GlcNAc(b1-6)]Gal(b1-4)Glc
# In short: as §1
# [6] = target: Neu5Ac(a2-3)Gal(b1-3)[Fuc(a1-4)]GlcNAc
# In short: as §1
# [7] = target: Neu5Ac(a2-3)Gal(b1-3)[Fuc(a1-4)]GlcNAc(b1-3)Gal(b1-4)Glc
# In short: as §1
# [8] = target: Neu5Ac(a2-3)Gal(b1-3)[Neu5Ac(a2-6)]GalNAc
# In short: as §1
# [9] = target: Neu5Ac(a2-3)Gal(b1-3)[Neu5Ac(a2-6)]GlcNAc(b1-3)Gal(b1-4)Glc
# In short: as §1
# Neu5Ac(a2-3)Gal(b1-4)Glc = target: Neu5Ac(a2-3)Gal(b1-4)Glc
# In short: as §1
# [10] = target: Neu5Ac(a2-3)Gal(b1-4)GlcNAc
# In short: as §1
# [11] = target: Neu5Ac(a2-3)Gal(b1-4)GlcNAc(b1-2)Man(a1-3)[Neu5Ac(a2-3)Gal(b1-4)GlcNAc(b1-2)Man(a1-6)]Man(b1-4)GlcNAc(b1-4)[Fuc(a1-6)]GlcNAc
# In short: as §1
# [12] = target: Neu5Ac(a2-3)Gal(b1-4)GlcNAc(b1-3)Gal(b1-4)Glc
# In short: as §1
# [13] = target: Neu5Ac(a2-3)Gal(b1-4)GlcNAc6S(b1-3)Gal6S(b1-3)GlcNAc6S
# In short: as §1
# [14] = target: Neu5Ac(a2-3)Gal(b1-4)[Fuc(a1-3)]GlcNAc(b1-3)Gal
# In short: as §1
# [15] = target: Neu5Ac(a2-3)Gal(b1-4)[Fuc(a1-3)]GlcNAc(b1-3)Gal(b1-4)Glc
# In short: as §1
# [16] = target: Neu5Ac(a2-3)Gal(b1-4)[Fuc(a1-3)]GlcNAc(b1-3)Gal(b1-4)[Fuc(a1-3)]GlcNAc(b1-3)Gal(b1-4)Glc
# In short: as §1
# [17] = target: Neu5Ac(a2-3)Gal(b1-4)[Fuc(a1-3)]GlcNAc6S(b1-3)Gal(b1-4)Glc
# In short: as §1
# [18] = target: Neu5Ac(a2-3)Gal(b1-4)[Fuc(a1-3)]GlcNAc6S(b1-3)Gal6S(b1-3)GlcNAc6S
# In short: as §1
# [19] = target: Neu5Ac(a2-3)Gal6S(b1-4)[Fuc(a1-3)]GlcNAc(b1-3)Gal(b1-4)Glc
# In short: as §1
# [20] = target: Neu5Ac(a2-3)Gal6S(b1-4)[Fuc(a1-3)]GlcNAc6S(b1-3)Gal(b1-4)Glc
# In short: as §1
# [21] = target: Neu5Ac(a2-3)[GalNAc(b1-4)]Gal(b1-3)GalNAc(b1-4)[Neu5Ac(a2-3)]Gal(b1-4)Glc
# In short: as §1
# [22] = target: Neu5Ac(a2-3)[GalNAc(b1-4)]Gal(b1-4)Glc
# In short: as §1
# [23] = target: Neu5Ac(a2-6)Gal(b1-3)GlcNAc(b1-3)[Fuc(a1-3)[Gal(b1-4)]GlcNAc(b1-6)]Gal(b1-4)Glc
# In short: as §1
# [24] = target: Neu5Ac(a2-6)Gal(b1-3)GlcNAc(b1-3)[Gal(b1-4)GlcNAc(b1-6)]Gal(b1-4)Glc
# In short: as §1
# Neu5Ac(a2-6)Gal(b1-4)Glc = target: Neu5Ac(a2-6)Gal(b1-4)Glc
# In short: as §1
# [25] = target: Neu5Ac(a2-6)Gal(b1-4)GlcNAc
# In short: as §1
# [26] = target: Neu5Ac(a2-6)Gal(b1-4)GlcNAc(b1-2)Man(a1-3)[Neu5Ac(a2-6)Gal(b1-4)GlcNAc(b1-2)Man(a1-6)]Man(b1-4)GlcNAc(b1-4)GlcNAc
# In short: as §1
# [27] = target: Neu5Ac(a2-6)Gal(b1-4)GlcNAc(b1-2)Man(a1-3)[Neu5Gc(a2-6)Gal(b1-4)GlcNAc(b1-2)Man(a1-6)]Man(b1-4)GlcNAc(b1-4)GlcNAc
# In short: as §1
# [28] = target: Neu5Ac(a2-6)Gal(b1-4)GlcNAc(b1-2)[Neu5Ac(a2-3)Gal(b1-4)GlcNAc(b1-4)]Man(a1-3)[Neu5Ac(a2-3)Gal(b1-4)GlcNAc(b1-2)Man(a1-6)]Man(b1-4)GlcNAc(b1-4)GlcNAc
# In short: as §1
binder,measurement,setting,value
B1,glycan array binding signal (z-score),Neu5Ac(a2-3)Gal,-0.091
same,glycan array binding signal (z-score),[1],-0.077
same,glycan array binding signal (z-score),[2],-0.039
same,glycan array binding signal (z-score),[3],-0.041
same,glycan array binding signal (z-score),[4],-0.091
same,glycan array binding signal (z-score),[5],-0.09
same,glycan array binding signal (z-score),[6],-0.077
same,glycan array binding signal (z-score),[7],-0.083
same,glycan array binding signal (z-score),[8],-0.069
same,glycan array binding signal (z-score),[9],-0.091
same,glycan array binding signal (z-score),Neu5Ac(a2-3)Gal(b1-4)Glc,-0.017
same,glycan array binding signal (z-score),[10],-0.09
same,glycan array binding signal (z-score),[11],-0.091
same,glycan array binding signal (z-score),[12],-0.088
same,glycan array binding signal (z-score),[13],-0.054
same,glycan array binding signal (z-score),[14],-0.091
same,glycan array binding signal (z-score),[15],-0.083
same,glycan array binding signal (z-score),[16],-0.057
same,glycan array binding signal (z-score),[17],-0.042
same,glycan array binding signal (z-score),[18],-0.067
same,glycan array binding signal (z-score),[19],-0.091
same,glycan array binding signal (z-score),[20],-0.091
same,glycan array binding signal (z-score),[21],-0.091
same,glycan array binding signal (z-score),[22],-0.091
same,glycan array binding signal (z-score),[23],-0.091
same,glycan array binding signal (z-score),[24],-0.08
same,glycan array binding signal (z-score),Neu5Ac(a2-6)Gal(b1-4)Glc,-0.079
same,glycan array binding signal (z-score),[25],-0.091
same,glycan array binding signal (z-score),[26],-0.091
same,glycan array binding signal (z-score),[27],-0.091
same,glycan array binding signal (z-score),[28],-0.082
